PubChem BioAssay AID1508642 (National Center for Advancing Translational Sciences (NCATS), 2021)
In all, about 43,000 compounds went through this assay and about 200 (0.47%) were called active. Another 12% or so got no clear call; they are omitted. The call rests on the fitted dose curve; in most records, active means well fitted cell-killing curve with a large enough effect; inconclusive means small, poorly fitted or top-dose-only effect, or effect the other way; inactive means flat fitted curve, though single readings scatter. This is one part of the list.

Assay: Cell viability qHTS assay in S16 Pmp22-F2sN cells; further: nearly all actives have a fitted effect of over 65% in size
Details: S16 Pmp22-F2sN Schwann cells (luciferase reporters placed in the Pmp22 gene) viability, CellTiter-Glo, 24 h; series mostly up to 57.5 µM; activity change, negative = cytotoxicity: at the top concentration
In short: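 Seed 500-1,000 S16 Pmp22-F2sN cells per well in phenol-red-free DMEM with 10% heat-inactivated FBS; pin-add 23 nL compound; incubate 24 h at 37C; add CellTiter-Glo, wait 15 min protected from light; read luminescence.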
On the % scale 0 is the no-effect control and ±100 the full control effect.

SMILES | activity change, negative = cytotoxicity
CCOc1ccccc1CNC(=O)CCCN1C(=O)c2cccnc2Oc2ccc(Cl)cc21 | inactive: -12.2%
COc1ccccc1Cn1c(SCC(=O)C(C)(C)C)nc2ccccc2c1=O | inactive: 9.34%
CCNC(=O)C1CCN(Cc2cc3ccccc3n2Cc2ccc(C)cc2)CC1 | inactive: -1.22%
CCOC(=O)c1c(C)oc2nc(C)nc(N3CCN(c4ccc(OC)cc4)CC3)c12 | inactive: -0.505%
COc1ccc(CNC(=O)CCCN2C(=O)c3cccnc3Oc3ccc(Cl)cc32)cc1 | inactive: -2.96%
CCOC(=O)C1CCN(C(=O)Cn2ncc3c4ccccc4n(C)c3c2=O)CC1 | inactive: 8.74%
CCn1c(=O)c2sccc2n2c(CCC(=O)NCc3ccc(Cl)cc3)nnc12 | inactive: -7.15%
N#Cc1ccc(CSc2nnc(-c3ccc(Br)cc3)o2)cc1 | inactive: -0.282%
Cn1cc(C(c2ccccc2)c2ccc(Cl)s2)c2ccccc21 (stereo not drawn) | inactive: 9.74%
Cc1ccc(N2C(=O)CSC23C(=O)N(CC(=O)NC2CCCCC2)c2ccccc23)cc1C (stereo not drawn) | inactive: 3.88%
CCOc1cccc(NC(=O)C2CC(=O)N(C)C(=Nc3ccc(F)cc3)S2)c1 (stereo not drawn) | inactive: -9.56%
O=C(c1ccc(Br)s1)N(Cc1cccnc1)c1nc2ccc(F)cc2s1 | inactive: 6.98%
CCOc1ccccc1NC(=O)CN1C(=O)COc2ccc(S(=O)(=O)N3CCCCC3)cc21 | inactive: -6.69%
Cc1ccc2nc(COc3ccccc3NC(=O)COc3ccccc3Cl)cc(=O)n2c1 | inactive: 5.36%
CSc1ncc(C(=O)NCc2ccc(C)cc2)c(-c2ccccc2)n1 | inactive: 1.56%
Cc1ccc(CNC(=O)C2CCN(S(=O)(=O)c3c(C)noc3/C=C/c3c(C)cc(C)cc3C)CC2)cc1 | inactive: 1.59%
CCOC(=O)c1c(C)oc2ncnc(Nc3cc(Cl)ccc3OC)c12 | inactive: 8.95%
O=c1oc2c(CN3CCCC3)c(O)ccc2cc1-c1ccccc1 | inactive: -0.2%
COc1ccccc1N1CCN(C(=O)Nc2cn(CC(C)C)c(=O)c3ccccc23)CC1 | inactive: 0.167%
CCOCCCNC(=O)c1c(NC(=O)c2cc(=O)c3ccccc3o2)sc2c1CCC2 | inactive: 3.29%
CC(C)C(=O)Nc1cccc(C(=O)Nc2nnc(CC(C)(C)C)s2)c1 | inactive: 23.8%
CCOc1ccc(CNC(=O)c2ccc3c(c2)nnn3C2CCCC2)cc1 | inactive: 26.2%
Cc1cccc(Cn2c(=O)n(Cc3ccc4c(c3)OCO4)c(=O)c3oc4ccccc4c32)c1 | inactive: -2.12%
CCc1ccccc1NC(=O)c1cc2nc(-c3ccc(OC)c(OC)c3)cc(C(F)(F)F)n2n1 | inactive: -2.27%
O=C(Nc1ccc(C(=O)OCc2cc(=O)n3c4c(sc3n2)CCCC4)cc1)c1ccc(Cl)cc1 | inactive: 3.78%

SMILES | activity change, negative = cytotoxicity
Cc1ccc2c(=O)cc(C(=O)Nc3c(C(=O)Nc4cccc(Cl)c4)oc4ccccc34)oc2c1 | inactive: -1.67%
COc1ccc(NC(=O)c2c(NCc3cccs3)sc3c2CCCC3)cc1 | inactive: -6.37%
COC(=O)c1ccc(NC(=O)Cn2c(=O)nc(-c3ccccc3)c3ccccc32)cc1 | inactive: 13.9%
CCOC(=O)c1ccc(NC(=O)Cn2ncc3c(C)n(Cc4ccccc4F)c(C)c3c2=O)cc1 | inactive: 8.58%
COc1cc2ccccc2cc1C(=O)Nc1ccc2oc(-c3ccc(Cl)cc3)nc2c1 | inactive: 12.5%
Cc1ccc(-n2ncc3c(N(CC(C)C)CC(C)C)ncnc32)c(C)c1 | inactive: -5.62%
O=C(COc1ccccc1[N+](=O)[O-])N1CCC(c2nc3ccccc3o2)CC1 | inactive: 1.02%
Cc1c(CC(=O)NCCc2ccccc2F)c(=O)oc2cc(O)c(Cl)cc12 | inactive: 4.7%
Cc1ccc(CCNC(=O)c2c(C)oc3nc(C)nc(N4CCOCC4)c23)cc1 | inactive: 2.48%
CCN(CCCNC(=O)c1cc(Nc2ccc(OC)cc2OC)nc2ccccc12)c1cccc(C)c1 | inactive: -7.12%
CC(C)OC(=O)c1c(NC(=O)COc2cccc(Br)c2)sc2c1CCCC2 | inactive: 3.27%
O=C(CSc1nc2c([nH]c3ccccc32)c(=O)n1-c1ccccc1)N1CCOCC1 | inactive: 3.43%
CC(CNC(=O)C1CCN(S(=O)(=O)c2ccc3c(ccn3C)c2)CC1)c1ccccc1 (stereo not drawn) | inactive: 6.06%
COc1ccc(-c2onc(C)c2C)cc1S(=O)(=O)N1CCN(c2ccc(Cl)cc2)CC1 | inactive: 4.59%
Nc1nonc1C(=O)NCCNCc1cccc(Cl)c1Cl | inactive: -0.255%
O=C1CC(c2cccc(O)c2)c2cc3c(cc2N1)OCO3 (stereo not drawn) | inactive: 2.34%
CCCCN(CC)CCCNC(=O)C1CCCN(c2ncnc3c2nc2n3CCCCC2)C1 (stereo not drawn) | inactive: -3.44%
CCn1c(C)c(C)c2cc(C(=O)NCc3ccc(OC)cc3OC)ccc21 | inactive: -25.3%
CCN(CC)S(=O)(=O)c1ccc(NC(=O)c2c(C)oc3ncnc(N4CCOCC4)c23)cc1 | inactive: 8.3%
COc1cccc2c1Oc1ncccc1N(C(=O)CCC(=O)NC(C)C)C2 | inactive: -3.4%
CCC(=O)N1CCc2cc(CNS(=O)(=O)c3ccc(NC(=O)CC(C)C)cc3)ccc21 | inactive: -17.2%
CCc1c(C)sc2c1CCN(C(=O)Nc1cc(Cl)c(OC)cc1OC)C2c1ccccc1 (stereo not drawn) | inactive: -15.5%
COc1ccc2c(c1)CC(C(=O)NCCCN1CCN(c3ccccc3F)CC1)CO2 (stereo not drawn) | inactive: 0.685%
CCC(=O)N1CCc2cc(Br)cc(S(=O)(=O)CCC(=O)Nc3ccc(C)c(F)c3)c21 | inactive: 9.22%
C#CCn1cnc2c(cnn2-c2ccc(F)cc2)c1=O | inactive: 2.24%

SMILES | activity change, negative = cytotoxicity
COc1cc(NC(=O)Cn2cnc3c2c(=O)n(C)c(=O)n3C)c(OC)cc1Cl | inactive: 13.1%
CCOC(=O)c1c(NC(=O)/C(C#N)=C/c2ccccc2)sc2c1CCC2 | inactive: -9.39%
Cc1cc(C)cc(NC(=O)Nc2ccccc2OCc2cc(=O)n3ccccc3n2)c1 | inactive: 15.9%
CC(=O)Nc1ccc(NC(=O)c2cc3sccc3n2Cc2ccc(Cl)cc2)cc1 | inactive: 24.3%
CCOc1ccc(NC(=O)c2c(NC(=O)c3ccccc3F)sc3c2CCC3)cc1 | inactive: -4.54%
CCOc1cc(/C=C(\C#N)C(=O)Nc2ccc(C)cc2)ccc1OCc1cc(=O)n2nc(CC)sc2n1 | inactive: -4.69%
CCOc1ccccc1NC(=O)c1c(NCc2cccs2)sc2c1CCCCC2 | inactive: -7.48%
COc1cccc(Cn2c(SCC(=O)N(C)c3ccccc3)nc3ccccc32)c1 | inactive: 2.81%
COc1cccc2cc(-c3csc(-c4ccc(Cl)cc4)n3)c(=O)oc12 | inactive: 2.26%
Cc1ccc(CCNC(=O)c2cc(C)nc3c2c(C)nn3-c2ccc(C)cc2)cc1 | inactive: 14.9%
O=C(Nc1ccc(C(F)(F)F)cc1)C1CCN(c2cnccn2)CC1 | inactive: -16%
CCc1ccc(-n2nc(C)c3c(C(=O)Nc4cc(C)c(Cl)cc4OC)cc(C)nc32)cc1 | inactive: 4.77%
CCc1ccc(-c2nn(CC(=O)NCc3ccccc3)c3c2cnc2ccc(C)cc23)cc1 | inactive: 1.38%
O=C(CN1CCSc2ccccc21)N1CCCCC1 | inactive: 6.64%
CCOc1ccccc1NC(=O)Cn1c(=O)n(-c2ccc(F)cc2)c(=O)c2c3c(sc21)CN(C(C)=O)CC3 | inactive: -5.95%
Cc1ccc(-c2nc(CS(=O)(=O)CC(=O)NCc3ccc(Cl)cc3)c(C)o2)cc1 | inactive: -1.73%
COC(=O)c1ccc(Cn2c(SCc3ccccc3)nc3ccncc32)cc1 | inactive: -2.48%
Cc1cc(C(=O)Nc2cccc(F)c2)c2c(C)nn(-c3cccc(Cl)c3C)c2n1 | inactive: -10.5%
CCOc1ccc(C(=O)Nc2ccccc2OCc2cc(=O)n3ccccc3n2)cc1 | inactive: 0.0159%
Cc1ccccc1C(=O)OCc1cc(=O)n2c(C)csc2n1 | inactive: -52.1%
CCc1nn(CC(=O)NCc2ccc(OC)c(OC)c2)c(=O)c2cc3sc(C)cc3n12 | inactive: 11.4%
CCOC(=O)c1c(NC(=O)c2cc3nc(-c4ccccc4)cc(C(F)(F)F)n3n2)sc2c1CCC(C)C2 (stereo not drawn) | inactive: -23.5%
COc1ccc(CCNC(=O)c2nc(SCc3ccc(C)cc3)ncc2Cl)cc1OC | inactive: -5.69%
CCOC(=O)Cn1c(=O)n(-c2ccccc2OC)c2nc(-c3ccccc3F)nc(C(N)=O)c21 | inactive: 21.1%
COc1ccccc1OCCCCn1c(-c2ccc(Cl)cc2)nc2ccccc2c1=O | inactive: -0.734%

SMILES | activity change, negative = cytotoxicity
CCOc1ccc(C(=O)Nc2ccc3oc(-c4ccc(Br)cc4)nc3c2)cc1 | inactive: 0.154%
CCOC(=O)c1ccc(N2C(=O)Cc3cc(OCC)c(OCC)cc3C2c2ccccc2)cc1 (stereo not drawn) | inactive: 25.2%
CCOc1ccc(NS(=O)(=O)c2ccc3[nH]cc(C(=O)N4CCCCCC4)c(=O)c3c2)cc1 | inactive: -3%
NC(=O)CSc1nnnn1-c1cccc(O)c1 | inactive: -0.122%
COc1cccc(CN2C(=O)C3(SCC(=O)N3c3ccc(C(C)C)cc3)c3ccccc32)c1 (stereo not drawn) | inactive: 2.97%
Cn1c(SCc2ccccc2Cl)nc2c([nH]c3ccccc32)c1=O | inactive: 6.69%
COc1ccc(N2CCN(C(=O)c3sc4nc5n(c(=O)c4c3C)CCC5)CC2)cc1 | inactive: 2.58%
Cc1cccc(CCNC(=O)CCc2c(C)nc3ncnn3c2C)c1 | inactive: 2.37%
COc1ccc(Cc2nc3ccc(C(=O)NCCCN4CCN(C)CC4)cc3o2)cc1 | inactive: 6.67%
Cc1ccccc1-c1nc(SCC(=O)NCC2CCCO2)c2c(=O)n(C)c(=O)n(C)c2n1 (stereo not drawn) | inactive: -0.73%
CCCc1cc(=O)oc2cc(C)c3c(C(C)(C)C)coc3c12 | inactive: 7.18%
O=C(CCn1c(=O)c2cccn2c2cccnc21)NCc1ccccc1F | inactive: 11.3%
COc1cccc(NC(=O)c2ccc3[nH]c(C)cc(=O)c3c2)c1 | inactive: 20.4%
O=C(COc1ccc(F)cc1)Nc1ccccc1OCc1cc(=O)n2ccccc2n1 | inactive: 11.7%
COc1ccc(-c2noc(-c3ccc(NC4CCCCC4)c([N+](=O)[O-])c3)n2)cc1 | inactive: 1.42%
COC(=O)c1ccc(Cn2nc(-c3ccc(C)cc3)ccc2=O)cc1 | inactive: 5.88%
CCOc1ccc(N(C(C)C(=O)NCCSc2ccc(C)cc2)S(C)(=O)=O)cc1 (stereo not drawn) | inactive: 0.554%
COc1cccc(C(c2sc3nc(-c4ccco4)nn3c2O)N2CCN(c3ccccc3F)CC2)c1 (stereo not drawn) | inactive: -0.473%
Cc1cc(C)cc(NC(=O)C(=O)NCC(c2cccnc2)N2CCN(c3ccccc3)CC2)c1 (stereo not drawn) | inactive: 3.15%
COc1ccc(-n2ccn(Cc3ccccc3C)c(=O)c2=O)cc1 | inactive: -5.5%
CCc1cc2c(cc3c(=O)n(CC(=O)NC4CCCCC4)ncn32)s1 | inactive: 6.42%
O=C1CN(C(=O)Nc2ccccc2Cl)C(c2ccccc2)c2c(sc3c2CCCC3)N1 (stereo not drawn) | inactive: 5.05%
COc1ccc(-c2cc(C(=O)NCCc3ccc(OC)c(OC)c3)c3ccccc3n2)cc1 | inactive: 0.801%
